According to patent publication US20250066450A1 (LASK PHARMA, published 2025):

Target: T1, BMP10 (UniProt O95393 317-424)
T1 sequence (looked up): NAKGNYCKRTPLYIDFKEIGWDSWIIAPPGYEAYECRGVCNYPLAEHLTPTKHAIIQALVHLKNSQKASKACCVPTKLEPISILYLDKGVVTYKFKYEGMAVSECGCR
Assay: Biacore (SPR); Fc fusion captured with anti-Fc antibody, ligand injected
Experimental: A Biacore™-based binding assay was used to compare ligand binding selectivity of the ALK6 variant-Fc dimeric complex (e.g., SEQ ID NO: 46) described above with that of ALK6 wt-Fc complexes (SEQ ID NO: 49). The Fc dimeric complexes were independently captured onto the system using an anti-Fe antibody. Ligands were injected and allowed to flow over the captured receptor protein.

binding result: no binding
B1: ALK6-Fc fusion polypeptide (SEQ ID NO: 55) (Fc fusion)
chain: KKEDGESTAPTPRPKVLRCKCHHHCPEDSVNNICSTDGYCFTMIEEDDSGLPVVTSGCMKYEGSDFQCRDTPIPHQRRSIECCTERNECNKDLHPTLPPVVIGPFFDGSIRTGGGGSGGGGSGGGGSGGG[human IgG1 Fc and a few adjoining residues not listed]
